Data reported in PubChem BioAssay AID540267 (National Center for Advancing Translational Sciences (NCATS), 2011).
Out of some 340,000 compounds screened, about 530 (0.16%) were called active. Inconclusive means that the source gave no clear call. Such entries were picked first, then a sample of the others. Cut-off read from the data, not from the text of the source: active = activity change below about -80%; inconclusive = between about -30% and that limit; inactive = weaker than that.

Test: Small Molecules that selectively kill Giardia lamblia: qHTS;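 note: parasites exposed to compound for two days anaerobically before the ATP read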
Details: Giardia lamblia trophozoite viability; at 7.66 µM; stronger effect = lower value
Procedure, shortened: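 Luminescence from cellular ATP indicates surviving trophozoites (100 cells/well) following 48 hrs anaerobic compound treatment at 37 deg C; signal develops 15-30 min at room temperature.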
% is set by controls: 0 for no effect and ±100 for the full control effect.

SMILES	activity change
O=C(CS(=O)(=O)c1ccccc1)Nc1ncc([N+](=O)[O-])s1	inconclusive: -67.5% [inhibitor]
CCn1nc(NS(=O)(=O)c2ccccc2)c2cc3ccc(C)cc3nc21	inconclusive: -38.7% [inhibitor]
O=C(Nc1c(-c2ccccc2)nc2sccn12)c1ccccc1	inconclusive: -32.1% [inhibitor]
COc1cc2c(cc1OC)CN(C(=O)c1ccc([N+](=O)[O-])o1)CC2	inconclusive: -78.3% [inhibitor]
COc1cccc(/C=C/C(=O)OCC(=O)c2ccc3c(c2)NC(=O)CO3)c1	inconclusive: -32.1% [inhibitor]
Cc1csc(SCC(=O)NC(=O)Cc2ccccc2)n1	inconclusive: -38% [inhibitor]
COc1cccc(S(=O)(=O)Nc2ccc(C(=O)N3CCN(C(=O)c4ccco4)CC3)cc2)c1	inactive: 20.9%
CCOC(=O)c1cc2cc(OC)ccc2[nH]1	inactive: -2.75%
CCN(c1ccccc1)S(=O)(=O)c1ccc(OC)c(NC(=O)c2cc(F)c(F)c(F)c2F)c1	inactive: 12.5%
COc1cc(/C=C/c2ccc3cccc(OC)c3n2)c(O)c([N+](=O)[O-])c1	inconclusive: -76.2% [inhibitor]
Cc1ccc(C(=O)Nc2ccc(Nc3ccccc3)cc2)cc1C	inactive: 3.33%
COc1ccc2c(CCNC(N)=S)c[nH]c2c1	inconclusive: -33.3% [inhibitor]
O=[N+]([O-])c1ccc(-c2nc(-c3ccncc3)no2)cc1	inactive: -19.1%
CCOC(=O)C1Nc2c(cc(C(F)(F)F)cc2[N+](=O)[O-])C2c3ccccc3CC12 (stereo not drawn)	inconclusive: -40.4% [inhibitor]
O=C(c1ccccc1F)N1CCN(Cc2ccc3c(c2)OCO3)CC1	inactive: 1.26%
O=C(CSc1nc2ccccc2c(=O)n1-c1ccccc1)N/N=C/C=C/c1ccccc1[N+](=O)[O-]	inconclusive: -30.5% [inhibitor]
Cc1cc(C)nc(SCc2ccc(C(=O)N/N=C3\CCCC(=O)C3)cc2)n1	inconclusive: -40.2% [inhibitor]
CCOc1cc(/C=N\NC(=O)OC)ccc1OC(=O)c1ccco1	inconclusive: -34.7% [inhibitor]
COCCn1c(-c2ccccc2F)n[nH]c1=S	inactive: 23.4%
COc1ccc(C(=O)Nc2ccccc2C(=O)N2CCOCC2)cc1Br	inconclusive: -33.9% [inhibitor]
COc1ccc2[nH]c(C(=O)NCc3ccccc3)cc2c1	inactive: -20.2%
CC(OC(=O)c1ccc2c(=O)n3c(nc2c1)CCC3)C(=O)NC1CCCCC1C (stereo not drawn)	inconclusive: -34.1% [inhibitor]
O=C(CN(C(=O)CCC(=O)Nc1nccs1)c1ccc(F)cc1)NCc1ccccc1	inconclusive: -39.3% [inhibitor]
COc1ccc(N2CCN(C(=O)c3cccc(N4C(=O)C5CC=CC(C)C5C4=O)c3)CC2)cc1 (stereo not drawn)	inactive: 6.16%
O=C(Nc1ccc2nc(-c3ccc4nc[nH]c4c3)[nH]c2c1)c1cccs1	inactive: 1.54%
Cc1cccc(/C=N/Nc2ccc3ccccc3n2)c1	inconclusive: -31.8% [inhibitor]

SMILES	activity change
COc1ccc(N(CC(=O)Nc2ccc(C)cn2)S(=O)(=O)c2c(C)nn(C)c2C)cc1	inconclusive: -36.3% [inhibitor]
Cn1c(SCc2ccc(F)cc2Cl)nc2ccccc2c1=O	inactive: 23.5%
O=C(Nc1ccc(NC(=O)c2ccco2)nc1)c1cccnc1	inconclusive: -31.2% [inhibitor]
COc1ccc(S(=O)(=O)N2CCOC2CNC(=O)C(=O)NCc2ccco2)cc1OC (stereo not drawn)	inactive: -3.24%
CC(C)c1csc(CN2CCC(CO)(Cc3cccc(F)c3)CC2)n1	inconclusive: -32% [inhibitor]
O=C(NCC1CCCO1)c1cccc(C(=O)NCC2CCCO2)c1 (stereo not drawn)	inconclusive: -37% [inhibitor]
COc1ccc(NC(=O)c2nnn(CC(=O)Nc3ccccc3OC)c2N)c(OC)c1	inconclusive: -42.7% [inhibitor]
COc1ccc(-c2csc3ncn(-c4cccc(C)c4)c(=O)c23)cc1OC	inactive: 18%
COc1ccc(NC(=O)Nc2ccc3c(c2)C(=O)N([C@H](C)CO)C[C@H](C)[C@@H](CN(C)S(=O)(=O)c2ccc(F)cc2)O3)cc1	inactive: 6.02%
CCN(Cc1nc2ccccc2c(=O)[nH]1)C(=O)c1cc2c(s1)CCCCC2	inconclusive: -31.8% [inhibitor]
CC(=O)NS(=O)(=O)c1cccnc1Nc1ccc(Cl)cc1	inconclusive: -30.6% [inhibitor]
O=C(/C=C/c1ccco1)Nc1scc(-c2ccccc2)c1C(=O)O	inconclusive: -31.1% [inhibitor]
COc1ccc(CCNc2nnc(Sc3nnnn3-c3ccccc3)s2)cc1OC	inactive: 5.66%
CCC(C)NCCOCCOc1ccc(C)cc1OC (stereo not drawn)	inconclusive: -37.5% [inhibitor]
COC(=O)[C@@]1(Cc2ccc(F)cc2)[C@H]2c3cc(C(=O)N(C)C)n(Cc4ccc(OC)c(OC)c4)c3C[C@H]2CN1C(=O)c1ccccc1	inconclusive: -31.3% [inhibitor]
COc1ccc(-c2nnc3ccc(SCC(=O)N4CCCC4)nn23)cc1	inconclusive: -33.8% [inhibitor]
COc1ccc([C@@]23Oc4cc(OC)cc(OC)c4[C@]2(O)[C@H](O)[C@H](C(=O)N(C)C)[C@H]3c2ccccc2)cc1	inconclusive: -37.6% [inhibitor]
O=C(Cn1cc2c(n1)CCCC2)N1CCc2ccccc21	inconclusive: -35.9% [inhibitor]
C=CCN(CC=C)CCOc1ccccc1F	inconclusive: -34.9% [inhibitor]
N/C(Cc1nc(-c2ccc(Cl)cc2)cs1)=N/O	inconclusive: -31.2% [inhibitor]
CCCS(=O)(=O)NCCc1cc2ccc(C)cc2[nH]c1=O	inactive: 9.42%
CC(C)N1CSC(=S)N(Cc2ccccc2)C1	inconclusive: -30.9% [inhibitor]
CC(=O)OCCSc1c(-c2ccccc2)c2cc(Cl)ccc2[nH]c1=O	inconclusive: -45.3% [inhibitor]
CC(C)(C)OC(=O)C[C@H]1C/C=C\C[C@H](CC(=O)N[C@H](CO)Cc2ccccc2)C(=O)N[C@H](Cc2ccccc2)COC1=O	inactive: -4.47%
O=C(N/N=C/c1ccc(O)c([N+](=O)[O-])c1)c1ccncc1	inconclusive: -34.7% [inhibitor]
N/C(=N\OC(=O)c1ccc(Br)cc1)c1ccncc1	inactive: -19.1%

SMILES	activity change
Cc1cccc(N=Nc2c(C)c(C#N)c(O)[nH]c2=O)c1	active: -96.8%
CC1(C)Cc2c(sc(NC(=O)COc3cccc4ccccc34)c2C#N)C(C)(C)N1	inactive: -24.3%
O=S1(=O)c2ccc(Br)cc2N2CCC[C@@H]2CN1Cc1ccccc1	inconclusive: -31.5% [inhibitor]
CC(C)(C)CC(=O)Nc1ccccc1N1CCN(c2ccc(F)cc2)CC1	inactive: 10.9%
Cc1cccc(OCCN2C(=O)c3ccccc3C2=O)c1	inactive: 14.2%
COc1ccc(S(=O)(=O)NCC2CCC(C(=O)NCc3ccc(F)cc3)CC2)cc1 (stereo not drawn)	inconclusive: -33.9% [inhibitor]
O=C(CC(C(=O)O)c1ccc(F)cc1)c1ccc(Cl)cc1 (stereo not drawn)	inconclusive: -33.5% [inhibitor]
c1ccc(Cn2nnnc2C(c2ccncc2)N2CCOCC2)cc1 (stereo not drawn)	inactive: 0.0974%
CCN1CCN(c2ccccc2NC(=O)c2ccc(-n3cccn3)cc2)CC1	inactive: 9.04%
CCCCOc1cccc(C2/C(=C(\O)c3ccc4c(c3)OCCO4)C(=O)C(=O)N2CCN2CCOCC2)c1 (stereo not drawn)	inconclusive: -36.5% [inhibitor]
Oc1ccc(C=Nc2ccc(N3CCOCC3)cc2)c(O)c1	inactive: 0.638%
COc1ccc2nc(NC(=O)NC3CCCCC3)sc2c1	inconclusive: -31.7% [inhibitor]
CCOC(=O)CSc1nnc(NC(=O)c2ccc3c(c2)OCO3)s1	inconclusive: -48.4% [inhibitor]
Cc1ccc(-c2nc(-c3ccccn3)no2)cc1Cl	inconclusive: -62.2% [inhibitor]
[O-][n+]1cccc2c(Br)cc(Br)c(O)c21	inactive: -6.06%
CCc1cc(-c2nc(N)ncc2-c2ccc(Br)cc2)c(O)cc1OC	inactive: -9.04%
CC(=O)c1ccc(N2CCN(S(=O)(=O)c3cn(C)cn3)CC2)cc1	inconclusive: -35.1% [inhibitor]
CCCCCCCCC#Cc1nc(C)ccc1OC	inconclusive: -37.2% [inhibitor]
O=C1OC(c2ccc(O)cc2)(c2ccc(O)cc2)c2ccccc21	inconclusive: -33.8% [inhibitor]
CC(NCCN(C)C)C1CCC2C3CCc4cc(O)ccc4C3CCC12C (stereo not drawn)	inconclusive: -57.2% [inhibitor]
CCc1cc(C(=O)N(CC)CC(=O)Nc2ccc(OC)cc2)sc1C	inconclusive: -31.3% [inhibitor]
O=C1c2ccccc2C(=O)c2[nH]c(=O)[nH]c21	inconclusive: -32.4% [inhibitor]
NC1(C#Cc2ccc3oc(=O)c(-n4cc(-c5ccsc5)nn4)cc3c2)CCCCC1	inconclusive: -36.3% [inhibitor]
CCOC(=O)C1CCN(C(=O)Cc2c(C(=O)O)n(CC)c3ccccc23)CC1	inconclusive: -38.9% [inhibitor]
CCCCCn1c(CNC(=O)CC)nc2ccccc21	inconclusive: -34.2% [inhibitor]
CC(C)OC(=O)COc1ccc(-c2ccccc2)cc1	inactive: -0.813%
